Reference: the supplement of paper PMC4967469
IC50 is the fitted dose that halves viability relative to control wells, and lower means more sensitive; a fit beyond the top or the lowest dose is shown as a bound at that dose. AUC is the area under the same curve over the 256-fold range up to the top dose, as a fraction; values near 1 show little effect. Where the top dose is marked as inferred, it is not printed in the source and was worked back from the curve model.

Experiments:
Experiment in all cases: Viability of human cancer cell lines after 72 h of drug (GDSC screen)
AG-014699 = compound: CNCc1ccc(-c2[nH]c3cc(F)cc4c3c2CCNC4=O)cc1 [AG-014699]; conditions: top dose 5 µM; top dose inferred
Protocol: (§1)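 Human cancer cell lines in 384-well plates, medium with 10% serum, drug for 72 h over a 256-fold dose range (nine 2-fold or five 4-fold steps up to the top dose). Adherent lines were fixed and stained with the nucleic acid dye Syto60, suspension lines read with resazurin; signal relative to control wells, capped at 0 and 100%. One two-parameter sigmoid per drug and line, fitted in a mixed model over all curves with the slope shared within a line.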

NU-7441 = compound: O=c1cc(N2CCOCC2)oc2c(-c3cccc4c3sc3ccccc34)cccc12 [NU-7441]; conditions: top dose 2 µM; top dose inferred
Protocol: as §1

QL-XI-92 = compound: C=CC(=O)Nc1cc(NC(=O)c2ccc(C)c(NC(=O)c3ccno3)c2)cc(C(F)(F)F)c1 [QL-XI-92]; conditions: top dose 10.24 µM; top dose inferred
Protocol: as §1

S-Trityl-L-cysteine = compound: N[C@@H](CSC(c1ccccc1)(c1ccccc1)c1ccccc1)C(=O)O [S-Trityl-L-cysteine]; conditions: top dose 5.12 µM; top dose inferred
Protocol: as §1

Phenformin = compound: N=C(N)NC(=N)NCCc1ccccc1 [Phenformin]; conditions: top dose 4000 µM; top dose inferred
Protocol: as §1

WHI-P97 = compound: COc1cc2ncnc(Nc3cc(Br)c(O)c(Br)c3)c2cc1OC [WHI-P97]; conditions: top dose 10.24 µM; top dose inferred
Protocol: as §1

EHT 1864 = compound: O=c1cc(CN2CCOCC2)occ1OCCCCCSc1ccnc2cc(C(F)(F)F)ccc12 [EHT 1864]; conditions: top dose 10 µM; top dose inferred
Protocol: as §1

Vinorelbine = compound: CCC1=C[C@@H]2CN(C1)Cc1c([nH]c3ccccc13)[C@@](C(=O)OC)(c1cc3c(cc1OC)N(C)[C@H]1[C@@](O)(C(=O)OC)[C@H](OC(C)=O)[C@]4(CC)C=CCN5CC[C@]31[C@@H]54)C2 [Vinorelbine]; conditions: top dose 0.064 µM; top dose inferred
Protocol: as §1

XL-184 = compound: COc1cc2nccc(Oc3ccc(NC(=O)C4(C(=O)Nc5ccc(F)cc5)CC4)cc3)c2cc1OC [XL-184]; conditions: top dose 5.12 µM; top dose inferred
Protocol: as §1

Row | Cell Line | AUC (AG-014699) | IC50 (AG-014699) | AUC (NU-7441) | IC50 (NU-7441) | AUC (QL-XI-92) | IC50 (QL-XI-92) | AUC (S-Trityl-L-cysteine) | IC50 (S-Trityl-L-cysteine) | AUC (Phenformin) | IC50 (Phenformin) | AUC (WHI-P97) | IC50 (WHI-P97) | AUC (EHT 1864) | IC50 (EHT 1864) | AUC (Vinorelbine) | IC50 (Vinorelbine) | AUC (XL-184) | IC50 (XL-184)
1 | LS-411N (large intestine, adherent) | 0.964 | > 5 µM | 0.971 | > 2 µM | 0.935 | > 10.2 µM | 0.723 | 1.6 µM | 0.375 | 105 µM | 0.979 | > 10.2 µM | 0.939 | > 10 µM |  |  |  | 
2 | MV-4-11 (leukaemia, suspension) | 0.919 | > 5 µM | 0.844 | 1.07 µM | 0.843 | 5.45 µM | 0.561 | 0.456 µM | 0.146 | 27 µM | 0.859 | 6.18 µM | 0.9 | 8.73 µM | 0.611 | 0.0076 µM |  | 
3 | MZ7-mel (melanoma, adherent) | 0.987 | > 5 µM | 0.962 | > 2 µM | 0.985 | > 10.2 µM | 0.819 | 3.04 µM | 0.358 | 99.4 µM | 0.973 | > 10.2 µM | 0.947 | > 10 µM | 0.623 | 0.00881 µM | 0.936 | > 5.12 µM
4 | NB1 (neuroblastoma, semi-adherent) | 0.974 | > 5 µM | 0.938 | > 2 µM | 0.934 | > 10.2 µM | 0.746 | 1.77 µM | 0.8 | 2160 µM | 0.972 | > 10.2 µM | 0.877 | > 10 µM | 0.747 | 0.0223 µM | 0.937 | > 5.12 µM
